# Hit rate of the full screen: of about 310,000 compounds, about 2,200 (0.71%) showed an effect of 50% or more. The effect is printed as a negative number. The list shows a part of the results.
# Molecular target: human ether-à-go-go-related gene (hERG) potassium channel (human, UniProt Q12809)
# Assay: primary screen, population patch clamp on CHO cells stably expressing hERG
# human ether-à-go-go-related gene (hERG) potassium channel, sequence (Q12809 whole entry, looked up): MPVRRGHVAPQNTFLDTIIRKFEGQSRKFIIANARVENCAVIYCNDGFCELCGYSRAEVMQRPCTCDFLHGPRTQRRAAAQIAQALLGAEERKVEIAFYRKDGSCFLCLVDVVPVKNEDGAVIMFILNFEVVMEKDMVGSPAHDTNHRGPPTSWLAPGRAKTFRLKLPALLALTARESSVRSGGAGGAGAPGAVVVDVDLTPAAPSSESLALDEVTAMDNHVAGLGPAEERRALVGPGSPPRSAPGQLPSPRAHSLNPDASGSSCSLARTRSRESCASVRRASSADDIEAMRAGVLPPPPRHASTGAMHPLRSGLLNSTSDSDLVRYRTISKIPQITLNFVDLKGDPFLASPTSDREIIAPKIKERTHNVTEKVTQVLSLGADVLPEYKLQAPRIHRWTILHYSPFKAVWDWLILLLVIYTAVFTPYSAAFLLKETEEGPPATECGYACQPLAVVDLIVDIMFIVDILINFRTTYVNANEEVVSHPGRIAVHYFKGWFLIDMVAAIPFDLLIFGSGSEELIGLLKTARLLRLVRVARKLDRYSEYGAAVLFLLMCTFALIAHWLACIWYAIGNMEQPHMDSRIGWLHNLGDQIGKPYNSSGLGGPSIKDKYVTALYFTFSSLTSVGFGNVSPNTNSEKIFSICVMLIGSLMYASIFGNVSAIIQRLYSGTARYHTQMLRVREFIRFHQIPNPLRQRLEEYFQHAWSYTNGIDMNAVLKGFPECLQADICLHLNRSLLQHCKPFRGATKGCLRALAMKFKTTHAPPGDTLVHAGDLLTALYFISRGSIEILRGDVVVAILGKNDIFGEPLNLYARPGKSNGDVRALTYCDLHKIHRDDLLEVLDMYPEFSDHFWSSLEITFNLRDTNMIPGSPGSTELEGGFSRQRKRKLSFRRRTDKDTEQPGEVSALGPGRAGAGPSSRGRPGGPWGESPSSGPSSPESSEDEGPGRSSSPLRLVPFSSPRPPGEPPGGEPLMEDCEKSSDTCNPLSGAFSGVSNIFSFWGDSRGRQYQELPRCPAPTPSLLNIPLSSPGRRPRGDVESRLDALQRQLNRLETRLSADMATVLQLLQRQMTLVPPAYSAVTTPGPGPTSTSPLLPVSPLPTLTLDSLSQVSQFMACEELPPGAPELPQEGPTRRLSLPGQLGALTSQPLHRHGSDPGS
row,SMILES,"hERG current change (%, negative = inhibition) at 1uM [%]"
1,O=C(CCNC(=O)c1ccc(Cl)cc1)NCCCN1CCOCC1,9.09
2,Cc1ccccc1C(=O)N1CCC(n2nccc2NC(=O)CCOc2ccccc2)CC1,15.1
3,O=C(NC1CCS(=O)(=O)C1)c1cccc(S(=O)(=O)N2CCOCC2)c1 (stereo not drawn),10.3
4,CCC(=O)OC1(c2ccccc2)CCN(C)CC1C.Cl (stereo not drawn),9.74
5,O=C(Nc1ccc(N2CCCCC2)cc1)c1cccnc1Cl,13
6,CC1CCCCN1C(=O)CCS(=O)(=O)Cc1ccccc1 (stereo not drawn),12.5
7,Cc1ccc(-c2nc(NC(=O)CSc3nnnn3-c3ccccc3)ns2)cc1,14.9
8,CC(C)(CO)NC(=O)CCCOc1ccc(Cl)cc1Cl,2.23
9,Cc1onc(-c2c(F)cccc2Cl)c1C(=O)NC(=S)NC1CCS(=O)(=O)C1 (stereo not drawn),6.22
10,CC1Cc2ccccc2N1C(=O)CNc1ccccc1N1CCCCC1 (stereo not drawn),2.17
11,COCC(=O)NC1CCN(CC(=O)Nc2ccccc2[N+](=O)[O-])CC1,9.62
12,CCOc1nc(C)nc(NC(=O)NS(=O)(=O)c2ccccc2Cl)n1,-0.0985
13,CCc1sc(C(=O)N2CCC3(CC2)OCCO3)cc1Br,10.7
14,CN1C(=O)c2cccc(NC(=O)CCc3ccccc3)c2C1=O,8.12
15,O=C(O)c1cccc(-c2ccc(/C=C3/SC(=Nc4ccccc4)N(Cc4cccnc4)C3=O)o2)c1,14
16,COc1c(C(=O)NCCSC(C)(C)C)ccc2ccccc12,-6.1
17,COc1ccc(-c2cc(C)nc(SCc3cccc(C(=O)O)c3)n2)cc1,0.72
18,Cc1ccc(Cl)c(OCC(=O)Nc2ccccc2N2CCCCC2)c1,9.71
19,COc1ccc(NC(=O)c2ccc(-n3cnnn3)cc2)c([N+](=O)[O-])c1,11.3
20,N#Cc1ccsc1NC(=O)COC(=O)c1cc2ccccc2cc1O,13.7
21,COc1ccc(NC(=O)NCc2ccc3c(c2)OCO3)c(OC)c1,9.02
22,Nc1c(N(Cc2ccco2)C(=O)COc2ccccc2)c(=O)[nH]c(=O)n1Cc1ccccc1,10.6
23,CCS(=O)(=O)c1nc(S(=O)(=O)c2ccc(C)cc2)c(N2CCCC2)s1,11.8

row,SMILES,"hERG current change (%, negative = inhibition) at 1uM [%]"
1,Cc1ccc(/C=C/C(=O)N2CCc3ccccc3C2)cc1,-4.77
2,O=C(COc1ncnc2ccccc12)Nc1cccc(S(=O)(=O)N2CCOCC2)c1,0.89
3,CC1CCC2(CC1)NC(=O)N(Cc1nc(-c3ccccc3)no1)C2=O (stereo not drawn),2.98
4,CCOC(=O)Cc1csc(SCc2nc3sc4c(c3c(=O)[nH]2)CCC4)n1,11.4
5,COCCn1c(C)cc(C(=O)CSc2n[nH]c(N)n2)c1C,20.6
6,CC(/C=N/NC(=O)Cn1cnc2c1c(=O)n(C)c(=O)n2C)=C\c1ccccc1,4.71
7,Cl.c1ccc(Cn2nnnc2C(c2cccs2)N2CCOCC2)cc1 (stereo not drawn),17.6
8,Cn1ccs/c1=N\C(=O)Nc1cccc(Cl)c1,10.7
9,COc1ccc(-c2cc(-c3cc(OC)ccc3O)[nH]n2)cc1,10.6
10,CCN(Cc1ccccc1)C(=O)c1c(-c2ccccc2Cl)noc1C,13
11,CCCCNC(=O)Nc1cc(C)on1,-5.96
12,CC(C)CNC(=O)CSc1nnc(-c2ccccn2)n1Cc1ccccc1,7.89
13,Cn1c(SCC(=O)NC2CCCCC2)nnc1-c1ccc(N)cc1,16.4
14,OCCC1CN(Cc2cccn2-c2ncccn2)CCN1Cc1ccccc1 (stereo not drawn),-33.4
15,Nc1ccc(O)c(-c2nc3ccccc3s2)c1,9.02
16,COCCCNCCOCCOc1ccccc1-c1ccccc1.O=C(O)C(=O)O,-8.87
17,COc1ccc(CNc2nc3ccccc3n2Cc2ccc(C)cc2)cc1OC,5.18
18,Cc1cc(CN(C)C(=O)c2ccc(OC3CCN(Cc4ccccn4)CC3)cc2)on1,-2.96
19,CCOc1ccc(C2C(C#N)=C(N)Oc3nc[nH]c(=O)c32)cc1 (stereo not drawn),13.3
20,CCN(CC(=O)NCc1ccc(F)cc1)CC(=O)Nc1ccccc1-c1ccccc1,0.673
21,CCc1nc(N2CCN(Cc3ccc4c(c3)OCO4)CC2)c2oc3ccccc3c2n1.Cl,7.93
22,Cc1cc(C(=O)N(C)Cc2ccc(Br)cc2)no1,4.99
23,COc1ccc(OCCn2ccnc2C)cc1.O=C(O)C(=O)O,17.9

row,SMILES,"hERG current change (%, negative = inhibition) at 1uM [%]"
1,COc1cc(CCC(=O)N2CCN(S(=O)(=O)c3ccc(C)c(C)c3)CC2)cc(OC)c1OC,6.35
2,CCOC(=O)c1c(-c2ccc(F)cc2)csc1NC(=O)C1CCCO1 (stereo not drawn),-1.27
3,CCN1CCN(C(=O)Cn2ncc3c([nH]c4ccc(C)cc43)c2=O)CC1,6.39
4,O=c1[nH]c2ccc(NS(=O)(=O)c3ccc(Cl)cc3)cc2[nH]1,14.2
5,CC(=O)OC(C)C[N+](C)(C)C.[Cl-] (stereo not drawn),12.7
6,Cc1ccc(OCC(=O)NNC(=S)NCc2ccccc2)cc1,2.87
7,COc1ccccc1NC(=O)CSc1ncn(-c2ccccc2)n1,9.27
8,CSC(=Nc1ccccc1)C(C#N)c1nc2ccccc2[nH]1 (stereo not drawn),8.29
9,C#CCN(CC=C)C(=O)C1CCC(=O)N(CCCc2ccccc2)C1 (stereo not drawn),20.3
10,Cc1c(-c2ccccc2)[n+](=O)c(-c2ccc(Cl)cc2)c(C)n1[O-],6.06
11,CN(C)S(=O)(=O)Oc1cccc(C(=O)Nc2ccc(Cl)c(Cl)c2)c1,-5.94
12,COCCSc1ccccc1C(=O)Nc1ccc([N+](=O)[O-])cc1OC,5.14
13,COCCNC(=S)N/N=C/c1ccc2c(c1)OCCO2,13.7
14,COc1ccc(S(=O)(=O)N2CCCC2CNC(=O)C(=O)NCc2ccccc2Cl)cc1 (stereo not drawn),5.55
15,Cc1nc2ccccn2c1C(=O)CSc1ccc(Cl)cc1Cl,-5.22
16,CC1CCN(CC(=O)c2cccc(C(F)(F)F)c2)CC1.O=C(O)C(=O)O,4.2
17,Cc1sc2nc(C(C)Sc3n[nH]c(N)n3)[nH]c(=O)c2c1C (stereo not drawn),6.76
18,C=CCn1c(N)cc(=O)nc1SC(C)C(=O)Nc1ccc(C(=O)OCC)cc1 (stereo not drawn),4.12
19,O=C(Nc1cccc(Cl)c1)c1ccc(NCC2CCCO2)c([N+](=O)[O-])c1 (stereo not drawn),3.6
20,O=C(Cn1nc(Cc2cccnc2)c2ccccc2c1=O)Nc1cccnc1Cl,11
21,Cc1ccccc1-c1nc(CS(=O)(=O)CC(=O)NCc2ccccc2)c(C)o1,9.34
22,CCCN1CCN(C(=O)c2cc(COc3ccc(F)c(F)c3)on2)CC1,-7.34
23,O=C(CNc1ccc(F)cc1)N/N=C/c1c(O)ccc2ccccc12,6.94

row,SMILES,"hERG current change (%, negative = inhibition) at 1uM [%]"
1,COc1ccc(-n2ncc3c2CC(C)(C)CC3NC(=O)C2=CC(=O)CC(C)(C)O2)cc1 (stereo not drawn),-21.5
2,O=c1cc([O-])nc(SCc2ccccc2)n1-c1ccc(Cl)cc1.[K+],20.8
3,CCC(=O)Nc1cccc(-c2cc3ccccc3oc2=O)c1,-20.7
4,COc1ccc(-c2cc(C(F)(F)F)nc(SCC(=O)NCCN3CCOCC3)n2)cc1OC,3.13
5,Cc1cccc(-n2cc(CNCCN3CCOC3=O)c(-c3cccc(F)c3)n2)c1,12.9
6,CCCCNC(=S)N1CCN(c2ccc(C(C)=O)cc2)CC1,-11.9
7,CCc1ccc(NC(=O)CSc2nc3ccsc3c(=O)n2CCC(=O)O)cc1,16.7
8,Cc1cccc(-n2ccnc2CN2CCC(CO)(Cc3ccccc3)CC2)c1,-16.8
9,O=C(NCc1ccccc1Cl)NC(=O)c1csc([N+](=O)[O-])c1,4.34
10,[2H]C(CCOS(N)(=O)=O)c1ccc(C(C)(C)C)cc1 (stereo not drawn),-0.401
11,CN(C)C(=O)C1OC(C)(C)OC1C(=O)N(C)C (stereo not drawn),12.1
12,O=C(NCC1CCCO1)C1CCC(=O)N1Cc1ccccc1Cl (stereo not drawn),3.11
13,CCN(CC(=O)Nc1c(F)cccc1F)C(=O)c1ccc(S(=O)(=O)NCc2ccco2)cc1,14.3
14,COC(=O)c1ccc(CSc2nc3sc4c(c3c(=O)n2C)CCCC4)o1,13.1
15,Nc1c(N(Cc2ccco2)C(=O)c2ccc(Cl)cc2)c(=O)[nH]c(=O)n1Cc1ccccc1,10.9
16,c1ccc(-c2noc(CN3CCc4sccc4C3)n2)cc1,10.7
17,CCCNc1c(NS(=O)(=O)c2ccc(OC)c(OC)c2)c(=O)oc2ccccc12,-77.2
18,COCCC1CCCCN1C(=O)c1cccc(OC2CCN(S(C)(=O)=O)CC2)c1 (stereo not drawn),10.4
19,N#CC(C#N)=C(N)/C(C#N)=C/c1cc(O)c(O)c(O)c1,12.8
20,O=C1CCCCCN1CP(=O)(O)CCc1ccccc1,3.98
21,CS(=O)(=O)N1CCN(c2ccc(NC(=O)C(c3ccccc3)c3ccccc3)cc2)CC1,2.73

# — paper PMC4336329 (PLoS ONE, 2015)
